Test results as given in PubChem BioAssay AID1347120 (National Center for Advancing Translational Sciences (NCATS), 2019).
Among all 390,000 compounds or so, about 930 (0.24%) were called active. Inconclusive means that the source gave no clear call. Such entries were picked first, then a sample of the others. Calls follow the shape of the dose curve; as a rule, active = well fitted activation curve with a large enough effect; inconclusive = small, poorly fitted or top-dose-only effect; inactive = no such curve, though single readings can be large or run the other way. A potency beside an inconclusive call is a rough fit, not a confirmed value. Numbered stars: 1 amine (or outer) side, 2 acyl side, 3 side chain; on linkers, the order of the positions; unused ones are H or OH. Bridge positions count the residues as written; N and C are the ends. Square brackets hold non-standard residues; d marks the D form. Peptide text beside a SMILES is read from it. * marks the point of attachment. X11 = O=C([C@H](CCCCc1ccc(O)cc1)N[*:1])[*:2]; Tigloyl = C/C=C(\C)C(=O)*; Dhb = C/C=C(\N)C(=O)O
Potency is read from the fitted curve at half-maximal effect; tags tell the direction and shape of the fitted curve.

Assay: qHTS for Suppressors of FUS Proteinopathy: Primary screen using FUS-linked yeast assay; also: nearly all actives have a fitted effect of over 55% in size;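 as to growth rescue (activation): plate controls were DMSO vehicle for no effect and reference control for full effect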
Conditions: S. cerevisiae FUS-expressing, OD600, 24 h; Potency: growth rescue; growth rescue (activation): at 76.6 µM (top of the series)
In short: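 Compound concentration series was pinned onto galactose-induced FUS-expressing yeast seeded at OD 0.005. Plates sat 24hr at 30C; absorbance at 600 nm gave growth. DMSO served as background control.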
For COc1cc(-c2nc3ccc(C)cn3c2NCc2ccccc2)ccc1SC1CCCCC1, the Potency was inconclusive: 28.2 µM [activator, single point]. For COc1cccc(OC)c1C(=O)NNC(=O)c1cccc(COc2ccc3c(c2)CCC3)c1, the Potency was inconclusive: 25.1 µM [activator, single point]. For CCCc1cc(C(=O)Nc2ccc(C(=O)c3ccccc3)cc2)n(C)n1, the “growth rescue (activation)” value was inactive: 27.6%. In the case of COc1ccc([C@H]2[C@H](C(=O)C(C)(C)C)N3N=Cc4ccccc4C3[C@]23N=C(c2ccccc2)OC3=O)cc1OC (stereo partly drawn), the Potency is reported as inconclusive: 31.6 µM [activator, partial curve, poor fit]. For CC(=O)c1ccc(NC(=O)c2ccc(N3C(=O)c4cccnc4C3=O)cc2)cc1, the Potency was inconclusive: 25.1 µM [activator, partial curve, poor fit]. With C/C=C1\NC(=O)[C@H](C)NC(=O)[C@@H](NC(=O)[C@@H](Cc2ccc(O)cc2)NC(=O)[C@@H](NC(=O)/C(C)=C/C)C(C)C)[C@@H](C)OC(=O)[C@H](CCCCc2ccc(O)cc2)NC(=O)[C@@H](CCC(=O)OC)NC1=O (Tigloyl-V[dY]TA[Dhb][dE](OMe)[X11]; ester 3-C) the Potency was inconclusive: 17.8 µM [activator, partial curve, poor fit]. In the case of COc1ccc(N2C(c3cc(OC)cc(OC)c3)=Cc3ccccc3C2CC(C)=O)cc1 (stereo not drawn), the Potency is reported as inconclusive: 31.6 µM [activator, single point]. For COc1ccc(-c2c3c(=O)n(C)c(=O)n(C)c3cn2-c2cc(OC)ccc2OC)cc1, the Potency was inconclusive: 39.8 µM [activator, partial curve, poor fit]. In the case of Cc1cc(C)c2sc(NC(=O)C3=COCCO3)nc2c1, the Potency is reported as inconclusive: 8.91 µM [activator, full curve]. With S=C1NCCc2ccc(Cl)cc2C1c1ccccc1 (stereo not drawn) the “growth rescue (activation)” value was inactive: 33.9%. With CN(C)c1ccc(CNC(=O)C2Cc3c(-c4ccccc4Oc4ccccc4)ccnc3O2)cc1 (stereo not drawn) the Potency was inconclusive: 50.1 µM [activator, single point]. With CCCN(C)C1CN(Cc2cn(Cc3ccc(F)cc3)nn2)S(=O)(=O)C1 (stereo not drawn) the “growth rescue (activation)” value was inactive: -14.6%. For COc1ccc(Nc2ncc(C(=O)N3CCN(c4ccc(F)cc4)CC3)c3ccccc23)cc1, the Potency was inconclusive: 50.1 µM [activator, single point]. In the case of CCOc1ccc(CCN2C(=S)N([C@@H](CC(C)C)CN3CCC[C@@H]3CN3C(=S)NC[C@@H]3Cc3ccc(O)cc3)C[C@@H]2Cc2ccc(O)cc2)cc1, the Potency is reported as inconclusive: 28.2 µM [activator, single point]. With CCCCN(CCCC)C1=C(C(=O)c2ccccc2)N(C)S(=O)(=O)c2ccccc21 the “growth rescue (activation)” value was inactive: -17%. For CCCS(=O)(=O)N1CCCC(C(=O)NCCOC)C1 (stereo not drawn), the “growth rescue (activation)” value was inactive: 0.0698%. With OCCCn1c(C2CCCN2c2nc(-c3ccc(Cl)cc3)cs2)nc2cc(Cl)c(Cl)cc21 (stereo not drawn) the Potency was inconclusive: 28.2 µM [activator, single point]. With O=C1c2ccccc2NC(c2cn[nH]c2-c2ccc(Cl)cc2)N1O (stereo not drawn) the Potency was active: 25.1 µM. With C#Cc1ccc([C@H]2C=C(C(=O)NCc3nc4ccccc4[nH]3)O[C@@H](OCc3ccc(CO)cc3)C2)cc1 the Potency was inconclusive: 31.6 µM [activator, single point]. With CCCCN1C(C(=O)c2ccccc2)=C(OC(C)=O)c2ccccc2S1(=O)=O the “growth rescue (activation)” value was inactive: 18.3%. With COc1ccc(Cl)cc1NC(=O)CN(C)CC(=O)Nc1cc(OC)c(OC)c(OC)c1 the “growth rescue (activation)” value was inactive: 14%. In the case of CC(C)c1ccc([C@@H]2O[C@H](CCc3ccccc3)Cc3[nH][nH]c(=O)c32)cc1, the Potency is reported as inconclusive: 50.1 µM [activator, single point]. For CCC(C)S(=O)(=O)c1oc(-c2ccc(F)cc2)nc1S(=O)(=O)c1ccc(F)cc1 (stereo not drawn), the Potency was inconclusive: 20 µM [activator, partial curve]. For O=C(Cn1c(=O)n(-c2ccc(F)c(Cl)c2)c(=O)c2sc3ccccc3c21)NC1CCCCC1, the “growth rescue (activation)” value was inactive: -21%. In the case of CC(=O)Nc1ccc(S(=O)(=O)N2CCC(c3nc4c(nnn4Cc4ccccc4Cl)c(=O)[nH]3)CC2)cc1, the Potency is reported as inconclusive: 17.8 µM [activator, single point]. With COc1ccc(Cn2cc(CN3CCc4onc(-c5ccc(Br)cc5)c4C3=O)nn2)cc1 the Potency was inconclusive: 28.2 µM [activator, single point]. With CCN1CCN(c2cc(C)c3cc(NC(=O)/C=C/c4ccc(OCCC(C)C)cc4)ccc3n2)CC1 the “growth rescue (activation)” value was inactive: 7.44%. For CCCCC(=O)N1C/C=C\[C@H](c2ccc(OC)cc2)N(Cc2ccc(F)cc2)C(=O)[C@@H]1C, the Potency was inconclusive: 28.2 µM [activator, single point]. For COC(=O)CCc1c[nH]c2ccc([N+](=O)[O-])cc12, the “growth rescue (activation)” value was inactive: 1.26%. In the case of CCCCOCCCNC(=O)C[C@H]1C[C@@]2(C(=O)OC)C(=C[C@H](C(C)(C)C)O[C@@H]2C)N(CCc2ccc(OC)c(OC)c2)C1=O, the Potency is reported as inconclusive: 17.8 µM [activator, partial curve, poor fit]. For CCN(CC)c1nc(Oc2ccc(C(=O)NN)cc2)nc(Oc2ccc(C(=O)NN)cc2)n1, the Potency was inconclusive: 3.16 µM [activator, full curve, poor fit]. With COc1ccccc1/C=C/C1(C(=O)NC2CCCC2)CC(=O)N1c1ccc(F)cc1 (stereo not drawn) the Potency was inconclusive: 50.1 µM [activator, single point]. For CC(=O)c1ccc(S(=O)(=O)N2CCn3cccc3C2c2ccc(F)c(F)c2)cc1 (stereo not drawn), the Potency was inconclusive: 25.1 µM [activator, single point]. With N#CC1=C(N)NC(SCC(=O)Nc2ccc(Br)cc2)=C(C#N)C12CCCCC2 the Potency was inconclusive: 31.6 µM [activator, single point]. In the case of Cc1ccc(CC(=O)N2CCN(c3ccccc3F)CC2)cc1, the Potency is reported as inconclusive: 25.1 µM [activator, single point]. With CSCCC(NC(=O)OC(C)(C)C)C(=O)Oc1ccc2c(=O)c(-c3ccc4c(c3)OCCO4)coc2c1 (stereo not drawn) the Potency was inconclusive: 44.7 µM [activator, single point]. For COc1ccc(-c2cc(C(F)(F)F)nc(N3CCN(C)CC3)n2)cc1OC, the “growth rescue (activation)” value was inactive: 7.07%. With O=C(NCCCN1CCCC1=O)c1cc(NS(=O)(=O)c2ccc(F)cc2)cc(NS(=O)(=O)c2ccc(F)cc2)c1 the Potency was inconclusive: 44.7 µM [activator, single point]. With COc1cc(C(=O)Nc2c(C(=O)Nc3ccccc3F)oc3ccccc23)cc(OC)c1OC the “growth rescue (activation)” value was inactive: -18.7%. For COC(=O)c1oc2ccc(Br)cc2c1NC(=O)c1ccccc1, the Potency was inconclusive: 10 µM [activator, partial curve, poor fit]. With S=c1[nH]nc(-c2cc(-c3ccccc3)n[nH]2)n1/N=C/C=C/c1ccccc1 the “growth rescue (activation)” value was inactive: 7.57%. For O=C(O)c1ccccc1COc1ccccc1Cl, the “growth rescue (activation)” value was inactive: -13%. For CCCCn1c(N)c(N(CCOC)C(=O)CN2c3ccccc3CC2C)c(=O)[nH]c1=O (stereo not drawn), the Potency was inconclusive: 28.2 µM [activator, partial curve, poor fit]. For COc1ccc(CN2CCC[C@]3(N[C@H](c4ccc(C)cc4)[C@@H]4C(=O)N(Cc5ccccc5)C(=O)[C@@H]43)C2=O)cc1, the Potency was inconclusive: 25.1 µM [activator, partial curve]. For O=C(OCC(=O)N1CCCC1=O)c1nc(Cl)c(Cl)c(Cl)c1Cl, the “growth rescue (activation)” value was inactive: -4.31%. For CC(C)CN1C(=O)C[C@]2(C(=O)N(C)c3ccc(NC(=O)C(F)(F)F)cc32)C1c1ccccc1 (stereo partly drawn), the “growth rescue (activation)” value was inactive: 1.82%. In the case of Cc1cc(C)n(-c2nc3ccccc3nc2N2CCN(C(=O)c3ccc(F)cc3)CC2)n1, the growth rescue (activation) is reported as inconclusive: 90.9% [activator]. With O=C(Nc1nnc(Cc2ccc([N+](=O)[O-])cc2)s1)Nc1ccccc1F the Potency was inconclusive: 20 µM [activator, partial curve]. With COc1cc(N=Nc2cccc(S(N)(=O)=O)c2)c2ccccc2c1N the Potency was inconclusive: 50.1 µM [activator, single point]. In the case of COc1cc(Cn2cc([C@]34C[C@H]5C(=O)N(C)CC(=O)N5[C@H]3N(S(=O)(=O)c3ccccc3)c3ccccc34)c3ccccc32)cc(OC)c1, the Potency is reported as inconclusive: 15.8 µM [activator, single point]. In the case of NC(=O)CC(NC(=O)c1ccc(Br)cc1)c1ccc(N2CCN(c3ccc(F)cc3)CC2)c([N+](=O)[O-])c1 (stereo not drawn), the Potency is reported as inconclusive: 31.6 µM [activator, single point]. In the case of Cc1cccc(Cn2nc(C(C)(C)C)cc2C(=O)N2CCOCC2)c1, the Potency is reported as inconclusive: 28.2 µM [activator, single point]. In the case of CCOc1cc(/C=N/N=C2/NC(=O)C(CC(=O)O)S2)ccc1OCc1ccccc1Cl (stereo not drawn), the Potency is reported as inconclusive: 12.6 µM [activator, partial curve, poor fit]. In the case of CCOC(=O)C1Nc2ccc(C(=O)O)cc2C2C=CCC12 (stereo not drawn), the Potency is reported as inconclusive: 35.5 µM [activator, single point]. In the case of Cc1cc(=O)oc2ccc(OC(=O)c3cccc(S(=O)(=O)N4CCOCC4)c3)cc12, the Potency is reported as inconclusive: 50.1 µM [activator, single point]. For O=C(NCc1ccccc1)C1Nc2ccc(OC(F)(F)F)cc2C2C=CCC12 (stereo not drawn), the “growth rescue (activation)” value was inactive: 29.6%. In the case of COc1ccc(NC(=O)C(OC(=O)Cn2cnc3c2c(=O)n(C)c(=O)n3C)c2ccccc2)cc1Cl (stereo not drawn), the Potency is reported as inconclusive: 44.7 µM [activator, single point]. For COC(=O)[C@]12C[C@H](CC(=O)NCCC(C)C)C(=O)N(Cc3ccc(Cl)cc3Cl)C1=C[C@H](C(C)(C)C)O[C@@H]2C, the Potency was inconclusive: 11.2 µM [activator, full curve, poor fit].
